Drawing on the RNAGym collection of RNA variant scans (doi:10.1093/nar/gkz1192), this text covers self-cleavage for 35 variants.

The source gives no read counts; variants with many changes may rest on few reads.

B1: CPEB3 Ribozyme (parent)
chain: UAACAGGGGGCCACAGCAGAAGCGUUCACGUCGCAGCCCCUGUCAGAUUCUGGUGAAUCUGCGAAUUCUGCUGUAUAUCUC

The data set covers variants of B1. Briefly: self-cleavage, relative activity (ratio to wild type); higher = more cleavage; in vitro, sequencing. The gist of the method: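 For each CPEB3 ribozyme variant, relative activity is its cleaved/total read fraction divided by the unmutated ribozyme's. Barcoded error-prone PCR libraries were transcribed by T7 RNA polymerase (5 hours, 37°C) and held in DNase I for 15 min before an EDTA stop, with cleavage occurring throughout. Template-switching reverse transcription and Illumina sequencing were used to read the RNAs. A 5-read minimum applied, and results are the mean of three batches.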
As to UAACAGGGGGCCACAGCAGAAGCGUUCACGUCGCAGCCCCUGUCAGAUUCUGGUGAAUCUGCGAACUCGGCUGAAUAUCUC [U66C U69G U74A], the self-cleavage was found to be 0.36.

Consider UAACAGGGGGCCACAGCAGAAGCGUUCACGUCGCAGCCCCUGUCAGAUUCUGGUGAAUCUGCGAAUUCUGCCGCACAUCUC [U72C U74C U76C], for which the self-cleavage stood at 1.2. In the case of UAACAGGGGGCCACAGCAGAAGCGUUCACGUCGCAGCCCCUGUCAGAUUCUGGUGAAUCUGCGAACUCUGCCGUAUACCUC [U66C U72C U78C] it was 0.39.

For the variant UAACAGGGGGCCACAGCAGAAGCGUUCACGUCGCAGCCCCUGUCAGAUUCUGGUGAAUCUGCGAAUCCUGCUGAUUAUCUC [U67C U74A A75U], the self-cleavage amounted to 0.25. The figure for UAACAGGGGGCCACAGCAGAAGCGUUCACGUCGCAGCCCCUGUCAGAUUCUGGUGAAUCUGCGGAUUCCGCUGUACAUCUC [A64G U69C U76C] is 0.43; for UAACAGGGGGCCACAGCAGAAGCGUUCACGUCGCAGCCCCUGUCAGAUUCUGGUGAAUCUGCGAACUCUGCAGUAUGUCUC [U66C U72A A77G] it is 0.35. In the case of UAACAGGGGGCCACAGCAGAAGCGUUCACGUCGCAGCCCCUGUCAGAUUCUGGUGAAUCUGCGAAAUCUGCCGUAUAACCC [U66A U72C U78A U80C] it was 0.63; in that of UAACAGGGGGCCACAGCAGAAGCGUUCACGUCGCAGCCCCUGUCAGAUUCUGGUGAAUCUGCGGUUCCUGCGGUGUAUCUC [A64G A65U U67C U72G A75G], 0.22; in that of UAACAGGGGGCCACAGCAGAAGCGUUCACGUCGCAGCCCCUGUCAGAUUCUGGUGAAUCUGCGAAUUCUGCAGUAUGCCUC [U72A A77G U78C], 1.11. In the case of UAACAGGGGGCCACAGCAGAAGCGUUCACGUCGCAGCCCCUGUCAGAUUCUGGUGAAUCUGCGAAUUACGCUGUAUAUGUC [C68A U69C C79G] it was 0.31. With UAACAGGGGGCCACAGCAGAAGCGUUCACGUCGCAGCCCCUGUCAGAUUCUGGUGAAUCUGCGAGUUCUGCCGUAUAACUC [A65G U72C U78A], the self-cleavage stood at 0.42. The figure for UAACAGGGGGCCACAGCAGAAGCGUUCACGUCGCAGCCCCUGUCAGAUUCUGGUGAAUCUGCGAAUUCUGUUGUGUACCUC [C71U A75G U78C] is 0.25; for UAACAGGGGGCCACAGCAGAAGCGUUCACGUCGCAGCCCCUGUCAGAUUCUGGUGAAUCUGCGAGUUCCGCUGUACAUCUC [A65G U69C U76C] it is 0.22; for UAACAGGGGGCCACAGCAGAAGCGUUCACGUCGCAGCCCCUGUCAGAUUCUGGUGAAUCUGCGAAAUCUACUGUAUAUCCC [U66A G70A U80C] it is 0.24. The figure for UAACAGGGGGCCACAGCAGAAGCGUUCACGUCGCAGCCCCUGUCAGAUUCUGGUGAAUCUGCGGAAUCUGCAGUAUAUCUC [A64G U66A U72A] is 0.54. The figure for UAACAGGGGGCCACAGCAGAAGCGUUCACGUCGCAGCCCCUGUCAGAUUCUGGUGAAUCUGCGAACCCUGCCGUAUAGCUC [U66C U67C U72C U78G] is 0.13; for UAACAGGGGGCCACAGCAGAAGCGUUCACGUCGCAGCCCCUGUCAGAUUCUGGUGAAUCUGCGAGCUCCGCUGUAUAUCCC [A65G U66C U69C U80C] it is 0.15. UAACAGGGGGCCACAGCAGAAGCGUUCACGUCGCAGCCCCUGUCAGAUUCUGGUGAAUCUGCGAGUUCUGCUGCAAAUCUC [A65G U74C U76A]: the self-cleavage was 0.7. As for UAACAGGGGGCCACAGCAGAAGCGUUCACGUCGCAGCCCCUGUCAGAUUCUGGUGAAUCUGCGUAUCCGGCAGUAUAUCUC [A64U U67C U69G U72A], the self-cleavage amounted to 0.22. In the case of UAACAGGGGGCCACAGCAGAAGCGUUCACGUCGCAGCCCCUGUCAGAUUCUGGUGAAUCUGCGAAUGCUGCUGUAUGUCCC [U67G A77G U80C] it was 0.28; in that of UAACAGGGGGCCACAGCAGAAGCGUUCACGUCGCAGCCCCUGUCAGAUUCUGGUGAAUCUGCGAAUCCUACAGUAUAUCUC [U67C G70A U72A], 0.21. In the case of UAACAGGGGGCCACAGCAGAAGCGUUCACGUCGCAGCCCCUGUCAGAUUCUGGUGAAUCUGCGUAUUCCGCUGCAUAUCUC [A64U U69C U74C] it was 0.18; in that of UAACAGGGGGCCACAGCAGAAGCGUUCACGUCGCAGCCCCUGUCAGAUUCUGGUGAAUCUGCGAAAUCUGCUGUACAACUC [U66A U76C U78A], 0.64; in that of UAACAGGGGGCCACAGCAGAAGCGUUCACGUCGCAGCCCCUGUCAGAUUCUGGUGAAUCUGCGAGUCCUGCCGUAUAUCUC [A65G U67C U72C], 0.2.

On to UAACAGGGGGCCACAGCAGAAGCGUUCACGUCGCAGCCCCUGUCAGAUUCUGGUGAAUCUGCGAAUUCAGCUGUAUACCCC [U69A U78C U80C], for which the self-cleavage came out at 0.79. In the case of UAACAGGGGGCCACAGCAGAAGCGUUCACGUCGCAGCCCCUGUCAGAUUCUGGUGAAUCUGCGGAUUCUGCCGUAAAUCUC [A64G U72C U76A] it was 0.68.

For the variant UAACAGGGGGCCACAGCAGAAGCGUUCACGUCGCAGCCCCUGUCAGAUUCUGGUGAAUCUGCGAAUUCUGAAGUAUACCUC [C71A U72A U78C], the self-cleavage was 0.37. In the case of UAACAGGGGGCCACAGCAGAAGCGUUCACGUCGCAGCCCCUGUCAGAUUCUGGUGAAUCUGCGAAUUCUGCUAUUUACCUC [G73A A75U U78C] it was 1.32.

Turning to UAACAGGGGGCCACAGCAGAAGCGUUCACGUCGCAGCCCCUGUCAGAUUCUGGUGAAUCUGCGAAUUCUGCAGAAUACCUC [U72A U74A U78C], the self-cleavage turned out to be 1.12. The figure for UAACAGGGGGCCACAGCAGAAGCGUUCACGUCGCAGCCCCUGUCAGAUUCUGGUGAAUCUGCGAAUCCUGCCGUAUAUCCC [U67C U72C U80C] is 0.4; for UAACAGGGGGCCACAGCAGAAGCGUUCACGUCGCAGCCCCUGUCAGAUUCUGGUGAAUCUGCGAAUUCUGCCAUAUAUCCC [U72C G73A U80C] it is 1.32; for UAACAGGGGGCCACAGCAGAAGCGUUCACGUCGCAGCCCCUGUCAGAUUCUGGUGAAUCUGCGAAUUCUGCAGUAGACCUC [U72A U76G U78C] it is 0.62. UAACAGGGGGCCACAGCAGAAGCGUUCACGUCGCAGCCCCUGUCAGAUUCUGGUGAAUCUGCGGGUUCAGCUGUACGUCUC [A64G A65G U69A U76C A77G]: the self-cleavage is 0.12. As to UAACAGGGGGCCACAGCAGAAGCGUUCACGUCGCAGCCCCUGUCAGAUUCUGGUGAAUCUGCAAAUUCUACUGUAUAUCCC [G63A G70A U80C], the self-cleavage came to 0.19. As to UAACAGGGGGCCACAGCAGAAGCGUUCACGUCGCAGCCCCUGUCAGAUUCUGGUGAAUCUGCGAAUUCCGCAGUAUAACUC [U69C U72A U78A], the self-cleavage came to 0.5.
